# Reference: PubChem BioAssay AID488969 (Vanderbilt High Throughput Screening Facility, 2010)
# The full ranking holds about 110,000 compounds; the median of “z-score” is about -0.1, and the highest 2% start at about 2. The list shows a part of the results.
# Target: Metabotropic glutamate receptor 8 (Rattus norvegicus) (UniProt P70579)
# Assay: rat mGluR8 modulators via GIRK flux, primary screen, cell-based, thallium flux, HTS (AID 488969)
# Conditions: HEK293 rat mGluR8, GIRK (G protein-gated inwardly rectifying potassium channel) thallium flux, FluoZin2; at 10 µM; stronger effect = higher value; submaximal glutamate (EC20) added with thallium
# UniProt P70579, sequence (P70579 whole entry, looked up): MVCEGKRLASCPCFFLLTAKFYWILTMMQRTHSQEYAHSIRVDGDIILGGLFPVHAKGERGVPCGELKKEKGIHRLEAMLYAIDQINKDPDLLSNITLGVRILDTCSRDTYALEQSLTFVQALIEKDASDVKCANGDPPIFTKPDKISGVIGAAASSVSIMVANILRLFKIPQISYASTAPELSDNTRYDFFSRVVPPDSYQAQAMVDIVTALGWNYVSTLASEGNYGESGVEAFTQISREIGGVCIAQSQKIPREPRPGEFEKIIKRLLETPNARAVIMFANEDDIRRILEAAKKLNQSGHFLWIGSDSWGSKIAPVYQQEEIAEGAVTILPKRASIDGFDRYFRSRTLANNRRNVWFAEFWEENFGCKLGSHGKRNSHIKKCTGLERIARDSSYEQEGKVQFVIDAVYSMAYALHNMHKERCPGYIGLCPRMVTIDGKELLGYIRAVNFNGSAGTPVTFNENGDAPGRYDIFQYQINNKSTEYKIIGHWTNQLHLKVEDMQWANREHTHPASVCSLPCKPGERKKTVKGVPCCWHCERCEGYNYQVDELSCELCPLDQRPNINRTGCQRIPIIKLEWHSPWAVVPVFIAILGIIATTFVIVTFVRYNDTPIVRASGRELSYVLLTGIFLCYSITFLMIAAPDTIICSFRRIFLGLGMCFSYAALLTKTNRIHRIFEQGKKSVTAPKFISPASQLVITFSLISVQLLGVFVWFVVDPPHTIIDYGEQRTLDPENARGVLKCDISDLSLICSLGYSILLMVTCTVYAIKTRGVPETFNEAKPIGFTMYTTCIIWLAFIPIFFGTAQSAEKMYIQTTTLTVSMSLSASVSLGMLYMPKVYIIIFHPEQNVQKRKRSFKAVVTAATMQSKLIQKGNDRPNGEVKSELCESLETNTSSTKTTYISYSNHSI
row,Structure (SMILES),z-score
1,Cc1cnc(Nc2nc3ccccc3o2)nc1C(=O)Nc1cccc(C(F)(F)F)c1,-0.463
2,COc1cc(C)c(C)cc1S(=O)(=O)N1CCN(Cc2ccccc2)CC1,0.139
3,O=C(CCc1ccccc1)n1nc(-c2ccccc2)nc1NCc1ccco1,-0.0562
4,CCNC(=S)N/N=C(\C)c1cccc([N+](=O)[O-])c1,0.559
5,O=C(Cc1cccs1)Nc1nnc(SCc2ccc(F)cc2)s1,-0.158
6,COc1cc(OC)c(OC)cc1CNCCNC(=O)c1nonc1N,-0.173
7,Nn1c(-c2ccco2)n[nH]c1=S,-0.454
8,COCCCNCCCOc1ccc(Cl)cc1C(C)(C)C,0.908
9,COc1cc(C(=S)N2CCOCC2)ccc1OS(=O)(=O)c1ccccc1[N+](=O)[O-],-0.106
10,COCCNC(=O)COC(=O)CSCc1nc2ccccc2s1,-0.397
11,O=C(NCCCN=C1NS(=O)(=O)c2ccccc21)c1ccc(S(=O)(=O)N2CCOCC2)cc1,-0.163
12,CCOC(=O)C1=C(C)N(c2ccccc2)C(=O)C1CC(=O)O (stereo unspecified),0.197
13,COc1ccc(-c2cc(C(F)F)n3ncc(C(=O)N4CCCCC4)c3n2)cc1,-1.62
14,CN1C(=S)SC(/[N+]([O-])=C\c2ccccc2)C1(C)C (stereo unspecified),0.163
15,CSc1nc(Oc2ccccc2)c2sccc2n1,-0.199
16,COc1ccc(OC)c(Nc2nc(N)nc(CSc3nnc(N)s3)n2)c1,-0.0636

row,Structure (SMILES),z-score
1,CC1CN(Cc2nc3c(c(=O)[nH]c(=O)n3C)n2CCCc2ccccc2)CC(C)O1 (stereo unspecified),-0.229
2,COc1cc(C(=O)OCC(=O)N(C)C)cc(NC(=O)c2ccco2)c1OC,-0.0917
3,Cc1ccc2c(Cl)c(C(=O)Nc3ccc4c(c3)OCO4)sc2c1,0.402
4,CC(=O)N(CCCc1ccc(C(C)(C)C)cc1)CCCN(C)C,1.42
5,COc1ccc(Cl)c(N2CCN(CCCNC(=O)Nc3ccc(C)cc3)CC2)c1,2.3
6,Cc1ccc2c(c1)C(=O)CCN2,0.498
7,CCn1cc(C(=O)NC(=S)Nc2sc3c(c2C(=O)OC)CCCCCC3)cn1,-0.247
8,CCNC(=S)N1CCN(c2ccccn2)CC1,0.121
9,Cc1cccc(C(=O)OCC(=O)Nc2sc3c(c2C#N)CCC3)c1,0.126
10,C=C(C)C1CC=C(C)/C(=N\NC(=O)CNc2cccc3ccccc23)C1 (stereo unspecified),0.109
11,COc1cc(OC)c(NS(=O)(=O)c2cc(C(=O)OC(C)C(=O)NC3CC3)c(Cl)cc2Cl)cc1Cl (stereo unspecified),-0.282
12,Cc1ccc(N(CC(=O)NC2CCCC2)C(=O)CCCC(=O)Nc2ccccn2)cc1C,-0.332
13,C/C(=N/NC(=O)c1ccco1)c1cccc(NC(=O)c2ccc(C)o2)c1,-0.343
14,O=C1CSC(c2cccc(F)c2)N1c1ccc(O)cc1 (stereo unspecified),-0.13
15,COc1nccnc1NS(=O)(=O)c1ccc(NC(=S)NC(=O)c2ccccc2)cc1,0.0809
